Laboratory results taken from the BET-seq Pho4 binding data (Le et al. 2018).
Some of the results follow. Values were computed here from the reads of four pooled replicates and scatter widely.

These sequences were tested against T1, Pho4 (S. cerevisiae) (UniProt P07270) (assay: relative binding free energy (BET-seq); higher = weaker binding). Settings: reference: library average.
T1 sequence: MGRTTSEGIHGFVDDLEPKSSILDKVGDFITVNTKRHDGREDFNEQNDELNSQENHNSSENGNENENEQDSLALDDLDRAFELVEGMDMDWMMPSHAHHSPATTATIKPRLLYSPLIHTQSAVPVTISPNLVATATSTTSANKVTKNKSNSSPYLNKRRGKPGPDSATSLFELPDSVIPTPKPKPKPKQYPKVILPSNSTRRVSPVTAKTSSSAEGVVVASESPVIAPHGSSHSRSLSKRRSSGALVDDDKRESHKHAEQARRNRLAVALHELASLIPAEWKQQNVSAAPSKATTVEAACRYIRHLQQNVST

Sequence | relative binding free energy [kcal/mol]
CTATTCACGTGGGTAG | 0.03
TGGTTCACGTGCGGCG | 0.21
GGGTTCACGTGCAGAT | 0.26
GGCCTCACGTGGAGGT | 0.15
TTACGCACGTGATTAT | 0.19
ATTTTCACGTGACGTG | 0.42
ATGTTCACGTGTATCA | 0.23
ATCTGCACGTGTGCGG | 0
GGGCACACGTGGCGAG | 0.06
TATGACACGTGTAAAG | 0.17
TTGGCCACGTGAGTTG | 0.24
TTGTTCACGTGGTTAA | 0.18
CAGGGCACGTGTGTCT | -0.13
CTTGGCACGTGGTTGA | -0.2
CATTGCACGTGGGGGC | -0.04
TTAAGCACGTGTGTTA | 0.02
AGGAACACGTGTGTGG | 0.1
CTGCGCACGTGGTGAT | -0.15
TACGACACGTGGAGTG | -0.09
ATGGCCACGTGGGTGA | -0.22
ATGAACACGTGGTGGT | -0.03
ATGGTCACGTGGAGTT | 0.2
CTAGGCACGTGTTTGG | -0.13
TGATGCACGTGGATGA | -0.05
GATAACACGTGATGTT | 0.17

Sequence | relative binding free energy [kcal/mol]
TGTGTCACGTGGATCT | 0.03
GGTTGCACGTGCTGAT | 0.07
AATAGCACGTGGCTTT | -0.03
AATGTCACGTGTGTTA | 0.12
AGGGCCACGTGTCAGG | -0.16
TCAGTCACGTGGTTGG | -0.01
AGGGTCACGTGGTAAG | 0.12
TTGTTCACGTGAGAGT | 0.4
ATTGGCACGTGGTTCG | -0.23
TATCTCACGTGCTGGT | 0.13
CTTTGCACGTGATGTG | 0.15
AGATTCACGTGTATGT | 0.11
CAATTCACGTGGGTAA | 0.23
AGGGCCACGTGGTATG | -0.16
GGAGGCACGTGGCGGT | -0.2
GTATTCACGTGTACGG | 0.18
GATGTCACGTGAGGGT | 0.39
AAGCGCACGTGTTTTG | -0.15
TCAGGCACGTGTGAGT | 0.03
CGGTACACGTGGGCGG | -0.09
CAGATCACGTGGGTCG | 0.16
AAGAGCACGTGGGTGA | -0.13
TGGGTCACGTGTGGTC | 0.16
TCGTACACGTGGGGCG | 0.11
TTGGTCACGTGGGACG | 0.07

Sequence | relative binding free energy [kcal/mol]
TGGGACACGTGTCTAG | -0.09
TTGTCCACGTGTTAAT | 0.04
AGAGGCACGTGTTCGA | 0.05
AGATTCACGTGGTTAG | 0.11
AGTATCACGTGGAGTC | 0.2
ATGGTCACGTGATGTG | 0.35
GTGGGCACGTGCCGCG | -0.12
CTTGGCACGTGTTGGA | 0
AGTGTCACGTGGACTA | -0.04
GCGGGCACGTGATGGG | 0.11
GGATTCACGTGTGCTT | 0.34
CGTGTCACGTGAAGGT | 0.23
TAGGTCACGTGATAGA | 0.16
TCTTGCACGTGTTAGT | 0.05
AGGGGCACGTGATTCG | -0.1
GTAGCCACGTGTGAGT | -0.04
ATAAACACGTGGTGGT | -0.13
CGAGTCACGTGTGATT | 0.12
ATGATCACGTGATGGC | 0.19
TCATACACGTGGGTTT | 0.05
TAGTGCACGTGGGGAC | -0.1
TGGGTCACGTGACCGG | 0.24
AGGGCCACGTGGGTAT | -0.28
CCGGTCACGTGGTATG | -0.04
TACAGCACGTGGGGTT | -0.12

Sequence | relative binding free energy [kcal/mol]
GTAGACACGTGGGAGT | -0.07
GAGTGCACGTGATAGG | 0.23
TTTGGCACGTGCAGGC | -0.08
AGCTACACGTGGTATG | -0.04
GTGGGCACGTGTGGAA | 0.02
GCGTGCACGTGGGGTT | -0.13
GTTAACACGTGGTCTG | -0.12
ACGTGCACGTGGTTGG | -0.17
CGTGTCACGTGGGTGC | -0.09
TCGTCCACGTGGGTTT | -0.1
GGTTACACGTGCGCGT | -0.01
CGGTACACGTGGTGTC | 0.04
TAGCTCACGTGTTTAG | 0.27
GTGGTCACGTGGTCTT | 0.08
GGAGCCACGTGTGAGT | 0.1
GTATCCACGTGGTGGT | 0.08
ATATGCACGTGATCTG | 0.04
GGTGGCACGTGGCTAT | -0.02
TGTCACACGTGTTAGG | 0.17
CATTACACGTGGGGGA | 0.08
TATGGCACGTGGGGAC | -0.22
GTCGTCACGTGGGTCG | -0.05
CAAGGCACGTGTGTTG | -0.08
GGGTACACGTGGGGAA | 0.13
TTGCGCACGTGATGCG | 0

Sequence | relative binding free energy [kcal/mol]
CAGCGCACGTGGTTGG | -0.19
GATGGCACGTGAAGTA | 0.21
GGCCACACGTGTGGGA | 0.29
AATTCCACGTGTTGGG | 0.1
GGATACACGTGGAATG | 0.11
GTGAGCACGTGAGTTT | 0.29
TAAGTCACGTGCTAGT | 0.06
TAGTTCACGTGTGATG | 0.44
TGGTACACGTGGTCGG | -0.01
CGGGGCACGTGAGTAA | 0.06
AAAGTCACGTGGGTGA | 0.12
TGTGACACGTGGAGTC | 0.03
GGTTGCACGTGTTTAA | 0.14
GGGATCACGTGTGGAG | 0.16
CTTGGCACGTGGTTGC | -0.1
AGTATCACGTGTATGT | 0.11
TGTTTCACGTGATACT | 0.45
CTTTTCACGTGGTGAA | 0.19
AGGTCCACGTGACGGT | 0.11
ATAATCACGTGTGGTT | 0.07
GAGCGCACGTGCGGGA | 0
TTGATCACGTGGGTTA | -0.08
ATATTCACGTGTATTA | 0.13
GCGGTCACGTGGTACG | 0.07
TCCGGCACGTGTGTTG | -0.03

Sequence | relative binding free energy [kcal/mol]
GTTTGCACGTGCAGGC | 0.08
GTAGACACGTGTTCGG | 0.03
TAGTCCACGTGTAGTG | 0.01
TGTATCACGTGTATAT | 0.08
ACGGGCACGTGGTGGA | -0.24
TGGTTCACGTGGAGAT | 0.28
ATTTCCACGTGAAGGT | 0.2
GGCTGCACGTGGGTGA | -0.2
TGGTTCACGTGCAATA | 0.24
GTAACCACGTGTGGGA | 0.03
AAGTACACGTGAATTG | 0.31
TGTTCCACGTGTTTTG | 0.05
ATAATCACGTGTCAGG | 0.21
TTGGTCACGTGCGTCG | -0.23
GGGGGCACGTGAAATG | 0.25
GTATACACGTGGCGGG | 0.01
GGTTACACGTGGGGTC | 0.01
TTATTCACGTGTGGTA | 0.26
CGTGGCACGTGTTGAA | 0.05
TAGCGCACGTGCTTGG | -0.15
CTTCACACGTGGTTTT | 0.24
